Hit rate of the full screen: of about 270,000 compounds, about 620 (0.23%) were called active. Inconclusive means that the source gave no clear call. Such entries were picked first, then a sample of the others. The call rests on the fitted dose curve; in most records, active means well fitted inhibition curve with a large enough effect in the polarisation, with a control signal flat (not every such curve was filed as active); inconclusive means small, poorly fitted or top-dose-only effect, or effect the other way, or a change in a side signal; inactive means no such curve, though single readings can be large or run the other way; the % refers to the polarisation. Where the call is inconclusive, the potency comes from a doubtful curve fit. “Side channel” marks fits to a control or component signal instead of the main read-out.
biological target: Menin (Homo sapiens) (UniProt O00255); experiment: qHTS Assay for Inhibitors Targeting the Menin-MLL Interaction in MLL Related Leukemias: Competition With Texas Red Labeled MLL-derived Mutant Peptide; settings: fluorescence polarization; series mostly up to 61.6 µM
UniProt O00255, sequence (O00255 whole entry, looked up): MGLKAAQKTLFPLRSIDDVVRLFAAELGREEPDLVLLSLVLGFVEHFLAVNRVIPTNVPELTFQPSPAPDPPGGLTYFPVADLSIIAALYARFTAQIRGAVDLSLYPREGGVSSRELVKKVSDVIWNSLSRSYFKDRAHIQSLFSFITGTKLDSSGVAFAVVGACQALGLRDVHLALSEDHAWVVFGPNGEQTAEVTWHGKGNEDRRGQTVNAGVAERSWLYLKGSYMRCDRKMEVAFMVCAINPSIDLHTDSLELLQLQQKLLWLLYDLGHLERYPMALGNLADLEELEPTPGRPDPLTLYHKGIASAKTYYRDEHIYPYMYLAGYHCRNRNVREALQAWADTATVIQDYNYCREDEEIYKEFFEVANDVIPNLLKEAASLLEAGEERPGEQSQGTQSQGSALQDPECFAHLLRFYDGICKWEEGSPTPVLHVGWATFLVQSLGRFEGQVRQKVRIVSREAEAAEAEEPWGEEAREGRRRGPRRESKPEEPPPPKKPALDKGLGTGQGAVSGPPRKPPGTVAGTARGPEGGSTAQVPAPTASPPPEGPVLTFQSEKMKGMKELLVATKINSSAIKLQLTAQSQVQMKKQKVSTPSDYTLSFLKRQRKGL
Potency means the concentration at half of the fitted maximal effect; tags describe the fitted curve by direction and shape or compound fluorescence and quenching.

| SMILES | Potency |
| --- | --- |
| CN1CCC(=O)N([C@H](CSc2ccccc2)Cc2ccccc2)CC1 | inconclusive: 14.1 µM [inhibitor, partial curve] |
| O=[N+]([O-])c1ccc(NNC(=S)Nc2ccc(F)cc2)cc1 | inconclusive: 12.6 µM [quencher, side channel, partial curve] |
| O=C(CSc1nnc(-c2ccccc2)o1)c1ccc2c(c1)OCCO2 | inactive |
| CCNC(=O)CC1C(=O)N(c2ccc(C)cc2)C(=O)N1CCOC (stereo not given) | inconclusive: 3.16 µM [quencher, side channel, single point] |
| CCOC(=O)c1ccc(Nc2cc(C)nc(-c3ccccc3)n2)cc1 | inconclusive: 2.51 µM [quencher, side channel, full curve, poor fit] |
| COc1ccc2ccccc2c1/C=N/NC(=O)c1cccc([N+](=O)[O-])c1 | inconclusive: 20 µM [fluorescent, side channel, partial curve] |
| Cc1ccc(C)c(SCC(=O)OC/C(O)=C(\C#N)c2nc3ccccc3[nH]2)c1 | inconclusive: 28.2 µM [quencher, side channel, partial curve] |
| O=C(Cn1nc2ccccc2n1)N/N=C/c1cc(Cl)cc([N+](=O)[O-])c1O | inconclusive: 14.1 µM [quencher, side channel, partial curve] |
| CC(C)(C)c1ccc(C(=O)c2c[nH]c(C(=O)NCc3ccco3)c2)cc1 | inconclusive: 28.2 µM [fluorescent, side channel, single point] |
| Cc1ccc(C)c(N2CCN(C(=O)c3ccc(Cn4c(=O)[nH]c5ccccc5c4=O)cc3)CC2)c1 | inconclusive: 8.91 µM [inhibitor, partial curve] |
| COc1ccc(NC(=O)Nn2cnnc2)cc1OC | inactive |
| Cc1cccc(NC(=O)c2ccc3c(c2)OCCO3)c1C | inconclusive: 3.55 µM [quencher, side channel, single point] |
| Cc1cccn2c(=O)c3cc(C(=O)NC4CCCCC4)c(=N)n(Cc4ccc(F)cc4)c3nc12 | inconclusive: 28.2 µM [inhibitor, partial curve] |
| CC(=O)c1cccc(NC(=O)C(OC(=O)c2ccccc2NS(=O)(=O)c2cccs2)c2ccccc2)c1 (stereo not given) | inconclusive: 5.62 µM [inhibitor, partial curve] |
| O=C(C1=C[C@H](c2coc3ccccc3c2=O)C[C@H](OCc2ccc(CO)cc2)O1)N1CCN(Cc2ccc3c(c2)OCO3)CC1 | inconclusive: 1.12 µM [fluorescent, side channel, full curve] |
